Measurements reported in PubChem BioAssay AID1347055 (National Center for Advancing Translational Sciences (NCATS), 2019).
Several values for one entry are separate records, joined by “and”; a condition that tells them apart may be missing. Equal values may be shown once. The campaign covered roughly 54,000 compounds. About 120 (0.22%) were called active. This list was built around the results that the source calls inconclusive (neither active nor inactive); the mix of calls is not that of the screen. Calls come from the whole dose curve; as a rule, active = well fitted inhibition curve with a large enough effect; inconclusive = small, poorly fitted or top-dose-only effect, or effect the other way; inactive = flat fitted curve, though single readings scatter. No potency is given beside an inconclusive call; the fits are too rough.

Molecular target: Fumarate hydratase, mitochondrial (Homo sapiens) (UniProt P07954)
Assay: Identification of activators of human fumarate hydratase by quantitative high-throughput screening; note: the screen sought activators but most active calls are inhibition curves; nearly all actives have a fitted effect of over 45% in size
Details: FH coupled MDH/diaphorase resazurin fluorescence, 15 min; activity change, negative = inhibition: at 79.9 µM (top of the series)
% is set by controls: 0 for no effect and ±100 for the full control effect; potency is the fitted concentration of half-maximal effect; tags give direction and shape of the fitted curve.

Sequence of UniProt P07954 (P07954 whole entry, looked up): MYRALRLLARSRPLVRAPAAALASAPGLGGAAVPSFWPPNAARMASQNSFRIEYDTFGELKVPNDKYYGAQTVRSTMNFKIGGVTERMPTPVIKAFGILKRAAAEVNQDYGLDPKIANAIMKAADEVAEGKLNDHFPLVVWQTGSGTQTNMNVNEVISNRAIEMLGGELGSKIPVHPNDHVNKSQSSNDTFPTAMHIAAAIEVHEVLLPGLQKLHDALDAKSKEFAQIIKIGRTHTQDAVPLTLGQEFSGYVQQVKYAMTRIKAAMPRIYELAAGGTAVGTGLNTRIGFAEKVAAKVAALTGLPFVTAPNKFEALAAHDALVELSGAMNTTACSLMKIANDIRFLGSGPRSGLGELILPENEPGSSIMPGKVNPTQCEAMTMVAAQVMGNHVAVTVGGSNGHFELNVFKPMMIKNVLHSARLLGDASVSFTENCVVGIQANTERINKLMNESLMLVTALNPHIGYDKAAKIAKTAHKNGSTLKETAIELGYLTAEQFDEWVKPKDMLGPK

Row | SMILES | activity change, negative = inhibition | Potency
1 | Cc1ccc(Cn2ccnc2SCC(=O)Nc2nc3ccccc3s2)cc1 | inconclusive: -30.5% [inhibitor] | –
2 | CCCc1cc(C)n(C)c(=O)c1CN(C)C(=O)c1cc(-c2ccc(N3CCN(C(C)C)CC3)nc2)cc2c1cnn2C(C)C | inactive: 7.44% | –
3 | FC(F)(F)Oc1ccc2c(c1)NC(c1ccncc1)=NC(c1cccs1)=N2 | – | inconclusive [inhibitor, partial curve, poor fit]
4 | Cc1ccc(NC(=O)CCSc2nc(-c3ccco3)cc(C(F)(F)F)n2)cc1F | – | inconclusive [inhibitor, partial curve, poor fit]
5 | CS/C=C/C(=O)O[C@@H]1CCC2=CC(=O)C(=C(C)C)C[C@]2(C)[C@H]1C | inactive: 1.8% [at 53.3 µM] | –
6 | C=CC(C)(O)C1CC2C3(C)CCCC(C)(C)C3C(O)C(O)C2(C)O1 (stereo unspecified) | inactive: 28.5% [at 53.3 µM] | –
7 | Cc1ccc(CN(C(=O)c2ccccc2F)c2ccccn2)o1 | inactive: -18.4% | –
8 | CCOc1ccc(-n2nc(CO)c(C(=O)NCCCc3ccccc3)n2)cc1 | – | inconclusive [inhibitor, partial curve, poor fit]
9 | O=C(O)CCCNc1cc(N2CCN(C3CCCCC3)CC2)c2noc3c2c1C(=O)c1ccccc1-3 | – | inconclusive [inhibitor, partial curve]
10 | CCc1ccc2oc(C(=O)Nc3cc(C)ccc3C)cc(=O)c2c1 | – | inconclusive [inhibitor, partial curve, poor fit]
11 | CCOC(=O)c1cccc(Nc2cc(-c3ccccc3)ncn2)c1 | – | inconclusive [inhibitor, single point]
12 | C=C1CO[C@@]2(O[C@H]3CC4C5CC=C6C[C@@H](O)C[C@@H](O[C@@H]7OC[C@H](O)[C@H](O[C@@H]8OC[C@@H](O)[C@H](O)[C@H]8O)[C@H]7O[C@@H]7O[C@@H](C)[C@H](OC(C)=O)[C@@H](OC(C)=O)[C@H]7OC(C)=O)[C@]6(C)C5CC[C@]4(C)[C@@H]3[C@@H]2C)[C@@H](O)[C@H]1OC1OC(C)C(O)C(O)C1O (stereo partly specified) | inactive: -3.26% [at 13.5 µM] | –
13 | Oc1ccc(NCc2ccccc2OCc2ccccc2F)cc1 | – | inconclusive [inhibitor, full curve, poor fit]
14 | Oc1ccc(O)cc1 | – | active: 27.6 µM and active: 3.55 µM
15 | COc1ccc(-c2nc3ccc(NS(=O)(=O)c4ccccc4)cc3o2)cc1 | – | inconclusive [inhibitor, single point]
16 | Cc1cccc(-c2nnc3n(CCc4ccccc4)c(=O)c4ccccc4n23)c1 | – | inconclusive [inhibitor, partial curve, poor fit]
17 | CCCCOc1nnc(-c2ccc(OCC)cc2)c2ccccc12 | – | inconclusive [inhibitor, full curve, poor fit]
18 | O=C1SC(Nc2ccc(Cl)cc2)C(=O)N1Cc1ccccc1 (stereo unspecified) | inactive: 2.61% | –
19 | O=C1c2[nH]nc(-c3ccccc3)c2C(c2ccccc2)N1c1cccc(C(F)(F)F)c1 (stereo unspecified) | – | inconclusive [inhibitor, partial curve, poor fit]
20 | CC1CCN(S(=O)(=O)c2ccc3c(c2)N(CC(=O)NCCc2ccc(Cl)cc2)C(=O)CO3)CC1 | – | inconclusive [inhibitor, partial curve, poor fit]
21 | Cc1ccc(NC(=O)CCCn2c3ccccc3c(=O)c3cc(C)ccc32)c(Br)c1 | inactive: -6.22% | –

Row | SMILES | activity change, negative = inhibition | Potency
22 | COc1cccc(OCc2nc3ccccc3n2Cc2ccccc2C)c1 | – | inconclusive [inhibitor, partial curve, poor fit]
23 | Cc1cc(C)c(NS(=O)(=O)c2ccc(-c3cnc(C4CC4)o3)cc2)c(C)c1 | – | inconclusive [inhibitor, single point]
24 | COc1ccc(C)cc1NC(=O)CCc1c(C)nn(-c2ccc(N3CCOCC3)nn2)c1C | – | inconclusive [activator, full curve]
25 | Cc1ccc(-c2[nH]c3ccccc3c2SCCNC(=O)c2ccc(S(=O)(=O)N(C)C)cc2)cc1 | inactive: -14.2% | –
26 | CC1(C)CC[C@]2(C(=O)O[C@@H]3O[C@H](CO)[C@@H](O)[C@H](O)[C@H]3O)CC[C@]3(C)C(=CCC4[C@@]5(C)C[C@@H](O)[C@H](O)[C@](C)(C(=O)O)C5CC[C@]43C)C2C1O (stereo partly specified) | – | inconclusive [activator, single point]
27 | CCSc1nnc2c(n1)OC(c1ccc(C)cc1)N(C(C)=O)c1ccccc1-2 (stereo unspecified) | inactive: 6.64% | –
28 | Cc1cccc(N2CCN(C(=O)c3ccc(CS(=O)c4cccc(Cl)c4)o3)CC2)c1C (stereo unspecified) | – | inconclusive [inhibitor, single point]
29 | CCOc1ccc(CCNC(=O)CSc2n[nH]c(-c3ccccc3)n2)cc1OCC | – | active: 6.31 µM
30 | CCCCOc1ccc(C(C)NC(=O)c2cccc(Nc3nc4ccccc4n4nnnc34)c2)cc1 (stereo unspecified) | inactive: 1.13% | –
31 | CCOc1ccccc1NC(=O)C1CCCN1S(=O)(=O)c1ccc2nc(-c3ccccc3)[nH]c2c1 (stereo unspecified) | – | inconclusive [inhibitor, single point]
32 | COc1cc2c(c(O)c1OC/C=C(\C)CC/C=C(/C)CCC=C(C)C)CN(C(CCC(=O)O)C(=O)O)C2=O (stereo unspecified) | inactive: -11.9% [at 53.3 µM] | –
33 | CCc1ccc(NC(=O)C2=CC(c3cccs3)=NS(=O)(=O)N2C)cc1 | – | inconclusive [inhibitor, partial curve]
34 | CCOc1ccccc1CNC(=O)Cn1nc(N2CCN(c3ccccc3)CC2)ccc1=O | – | inconclusive [inhibitor, partial curve, poor fit]
35 | CCOc1ccc(S(=O)(=O)Nc2ccc3oc4c(c3c2)CC(C)CC4)cc1 (stereo unspecified) | – | inconclusive [inhibitor, partial curve, poor fit]
36 | CC(C)CN(CC(C)C)CC(O)Cn1cc(/C=C/C(=O)c2ccccc2)c2ccccc21 (stereo unspecified) | inactive: -18.8% | –
37 | CN(C)c1ccc(CNC(=O)C2CCN(Cc3cc4ccccc4n3Cc3ccccc3)CC2)cc1 | – | inconclusive [inhibitor, partial curve, poor fit]
38 | CC(C)OCc1cc(CN2CCN(c3cccc(C(F)(F)F)c3)CC2)c(O)c2ncccc12 | – | inconclusive [activator, partial curve, poor fit]
39 | Cc1ccc(CCNC(=O)CN(c2ccc(C)cc2)S(=O)(=O)N(C)C)cc1 | inactive: -2.91% | –
40 | COc1cccc(CNC(=O)c2nc(Cn3nc(C)c(Br)c3C)no2)c1 | inactive: 3.26% | –
41 | COc1ccccc1CNC(=O)CSc1nnc(C)c2c(C)n(-c3ccccc3)nc12 | inactive: 17.2% | –
42 | Cc1ccc(CCNC(=O)c2ccc3c(c2)nc2n3CCOC2)cc1 | – | inconclusive [inhibitor, single point]

Row | SMILES | activity change, negative = inhibition | Potency
43 | CCCOc1ccc(-c2cc(C(F)(F)F)c(C#N)c(SCCC(=O)O)n2)cc1 | – | inconclusive [inhibitor, partial curve, poor fit]
44 | CCOCCn1ccc2c(OCC(=O)Nc3cccc(F)c3)cccc2c1=O | inactive: -7.44% | –
45 | Cc1ccc2occ(CC(=O)Nc3ccc(S(=O)(=O)N4CCC(C)CC4)cc3)c2c1 | – | inconclusive [inhibitor, single point]
46 | CC(=O)OC1C(O)CC2(C)C(CCC3(C)C2CC=C2C4C5(CCC(CO[C@@H]6O[C@H](CO)[C@@H](O)[C@H](O)[C@H]6O)(OC5=O)C4(C)O)C(O)CC23C)C1(C)C (stereo partly specified) | inactive: 1.13% [at 20.6 µM] | –
47 | Cc1ccc(S(=O)(=O)c2c(O)cc(C)c(NS(=O)(=O)c3ccc(Cl)cc3)c2C)cc1 | – | inconclusive [inhibitor, single point]
48 | Cc1cc(C)c2sc(N3CCN(C(=O)c4ccc(N(C)C)cc4)CC3)nc2c1 | – | inconclusive [inhibitor, single point]
49 | CC1=C(C(=O)Nc2ccc(Cl)cc2)C(c2ccccc2)n2ncc(C(=O)Nc3ccccc3)c2N1 (stereo unspecified) | inactive: -20.7% | –
50 | COc1ccc(NC(=O)CSc2nc(-c3cccc(C)c3)[nH]c2-c2ccccc2)cc1OC | – | inconclusive [inhibitor, single point]
51 | Cc1cccc(C)c1NC(=O)CS(=O)(=O)c1nc(-c2ccc(Cl)cc2)cn1-c1ccccc1 | – | inconclusive [inhibitor, partial curve]
52 | CCC(=O)C1=C(c2ccc(C)cc2)N(C(=O)CC)n2c(nnc2C2CCCCC2)S1 | inactive: -0.694% | –
53 | CCOC(=O)c1nc(NCc2ccc(Cl)cc2)c2c(C)noc2n1 | inactive: -5.59% | –
54 | COc1cc(CNC(=O)c2ccc3c(c2)c(C)c(C)n3Cc2cccc(C)c2)cc(OC)c1OC | – | inconclusive [inhibitor, single point]
55 | COc1ccc(Nc2cc(C(=O)NCCCN3CCN(c4ccccc4F)CC3)c3ccccc3n2)c(OC)c1 | – | inconclusive [inhibitor, partial curve, poor fit]
56 | Cc1ccc(Cn2c(CO)cnc2SCC(=O)Nc2ccc(C)c(Cl)c2)cc1 | – | inconclusive [inhibitor, single point]
57 | CN1C(=O)c2ccccc2Sc2ccc(NC(=O)c3ccc(C(F)(F)F)cc3)cc21 | – | inconclusive [inhibitor, single point]
58 | COc1ccc2c(c1)OC[C@]1(O)c3cc4c(cc3O[C@H]21)OCO4 | inactive: -3.67% [at 53.3 µM] | –
59 | COc1ccc2[nH]cc(CCNC(=O)Nc3cc(C)cc(C)c3)c2c1 | – | inconclusive [inhibitor, single point]
60 | CC(=O)Nc1ccc(Nc2ccc3cc(S(=O)(=O)N4CCCCC4)ccc3n2)cc1 | – | inconclusive [inhibitor, single point]
61 | CCc1nc2ccc(C(=O)N3CCN(c4cccc(Cl)c4)CC3)cc2nc1CC | inconclusive: -32.5% [inhibitor] | –
